Measurements taken from PubChem BioAssay AID1768 (National Center for Advancing Translational Sciences (NCATS), 2009).
Out of some 270,000 compounds screened, about 620 (0.23%) were called active. Inconclusive means that the source gave no clear call. Such entries were picked first, then a sample of the others. The call rests on the fitted dose curve; in most records, active means well fitted inhibition curve with a large enough effect in the polarisation, with a control signal flat (not every such curve was filed as active); inconclusive means small, poorly fitted or top-dose-only effect, or effect the other way, or a change in a side signal; inactive means no such curve, though single readings can be large or run the other way; the % refers to the polarisation. A potency beside an inconclusive call is a rough fit, not a confirmed value. A note “side channel” means that the fit belongs to a control or component signal, not to the main read-out.

Target: Menin (Homo sapiens) (UniProt O00255)
Assay: qHTS Assay for Inhibitors Targeting the Menin-MLL Interaction in MLL Related Leukemias: Competition With Texas Red Labeled MLL-derived Mutant Peptide; on FP activity change, negative = inhibition: % of control where 0% means no effect
Conditions: fluorescence polarization; FP activity change, negative = inhibition: at 61.6 µM (top of the series)
Potency means the concentration at half of the fitted maximal effect; tags describe the fitted curve by direction and shape or compound fluorescence and quenching.

Chain of UniProt O00255 (O00255 whole entry, looked up): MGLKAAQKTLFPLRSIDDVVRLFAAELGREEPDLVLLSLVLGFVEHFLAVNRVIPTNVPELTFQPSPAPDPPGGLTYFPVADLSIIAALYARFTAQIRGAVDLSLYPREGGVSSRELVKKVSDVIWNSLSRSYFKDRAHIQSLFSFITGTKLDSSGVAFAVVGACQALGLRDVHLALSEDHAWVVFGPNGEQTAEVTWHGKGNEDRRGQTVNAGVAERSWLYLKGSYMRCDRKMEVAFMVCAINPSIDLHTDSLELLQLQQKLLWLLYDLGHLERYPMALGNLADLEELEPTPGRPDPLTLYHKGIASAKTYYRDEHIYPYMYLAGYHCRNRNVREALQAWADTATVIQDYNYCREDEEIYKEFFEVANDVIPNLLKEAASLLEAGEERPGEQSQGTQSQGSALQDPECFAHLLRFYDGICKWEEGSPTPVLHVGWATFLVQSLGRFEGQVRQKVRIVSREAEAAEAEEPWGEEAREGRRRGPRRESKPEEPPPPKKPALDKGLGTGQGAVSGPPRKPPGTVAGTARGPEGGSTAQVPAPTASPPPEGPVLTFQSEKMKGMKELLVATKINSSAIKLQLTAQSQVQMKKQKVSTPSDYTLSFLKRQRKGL

| Compound | Potency | FP activity change, negative = inhibition |
| --- | --- | --- |
| CCCC(C)C(=O)Nc1nc(C)c(-c2csc(Nc3ccccc3OC)n2)s1 (centres undefined) | inconclusive: 8.91 µM [quencher, side channel, partial curve] | – |
| CCCCCCCCCn1c2c(c(=N)c3c1CCC3)CCCC2 | inconclusive: 1.41 µM [fluorescent, side channel, full curve] | – |
| CCN(CC)CCCN(Cc1cc2cc(OC)ccc2[nH]c1=O)C(=O)Nc1ccc(F)cc1 | – | inactive: -10.2% |
| CC1CCCCC1NC(=O)COC(=O)c1c2c(nc3ccccc13)/C(=C/c1ccco1)CC2 (centres undefined) | inconclusive: 31.6 µM [quencher, side channel, partial curve] | – |
| Cc1cccc(NCc2ccccc2O)c1 | – | inactive: 18.6% |
| CCOC(=O)C1CCCn2c1nc1sc3c(c1c2=O)CCCC3 (centres undefined) | inconclusive: 1.41 µM [inhibitor, full curve, poor fit] | – |
| O=C(NC(=S)NNC(=O)c1cnccn1)c1ccc(F)cc1 | – | inactive: -0.0467% |
| O=C(NCc1ccco1)c1cc(-c2ccc3c(c2)OCO3)on1 | inconclusive: 39.8 µM [inhibitor, single point] | – |
| CCOC(=O)c1cc(-c2ccc(/C=N\n3cnnc3)o2)ccc1Cl | – | inactive: 17.4% |
| CCOC(=O)c1c(NC(=O)C(F)(OC)C(F)(F)F)sc(C(=O)N2CCCCC2)c1C (centres undefined) | inconclusive: 17.8 µM [fluorescent, side channel, partial curve] | – |
| CCOc1cc2c(C#N)c(N3CCCCC3)nc(N)c2c(N)n1 | inconclusive: 22.4 µM [quencher, side channel, partial curve] | – |
| O=C(Nc1ccc(Cl)c(Cl)c1)Nc1ccccn1 | inconclusive: 39.8 µM [inhibitor, single point] | – |
| CC(C)C[C@H](NC(=O)c1nc[nH]c1C(=O)N1CCN(C(=O)OC(C)(C)C)CC1)C(=O)OC(C)(C)C | inconclusive: 6.31 µM [fluorescent, side channel, partial curve] | – |
| CCOC(=O)c1c(C)[nH]c(N=Nc2cccc(OC)c2)c1C | inconclusive: 25.1 µM [quencher, side channel, partial curve] | – |
| COc1ccc(C(=O)Nc2nc3ccc(OC)cc3s2)cc1 | inconclusive: 12.6 µM [quencher, side channel, partial curve] | – |
| O=C(Nc1ccc(Cl)cc1)Nc1ccccc1C(=O)NCc1ccco1 | inconclusive: 35.5 µM [quencher, side channel, partial curve] | – |
| CN1CCN(S(=O)(=O)c2ccc(NC(=O)c3ccc(Br)o3)cc2)CC1 | inconclusive: 3.98 µM [inhibitor, full curve, poor fit] | – |
| COc1ccc(COc2cc(-c3cccc(OC)c3)nc3ccc(NC(C)=O)cc23)cc1 | inconclusive: 44.7 µM [inhibitor, single point] | – |
| CCOC(=O)c1nc(Nc2ccc(C(=O)O)cc2)c2ccccc2n1 | inconclusive: 39.8 µM [inhibitor, single point] | – |
| Cc1cc(Nc2ccc(C(=O)N3CCCCC3)cc2)c2cccc(C)c2n1 | inconclusive: 25.1 µM [inhibitor, partial curve] | – |

| Compound | Potency | FP activity change, negative = inhibition |
| --- | --- | --- |
| COc1c(F)c(F)c(C(=O)O)c(Nc2cc(C)cc(C)c2)c1F | inconclusive: 25.1 µM [quencher, side channel, single point] | – |
| NC(=O)c1ccccc1NC(=O)CCCCCn1nnc2ccccc2c1=O | inconclusive: 0.631 µM [inhibitor, partial curve, poor fit] | – |
| O=C(Nc1nccs1)c1ccc(Br)s1 | inconclusive: 17.8 µM [quencher, side channel, single point] | – |
| CCCCN(C)Cc1c(C(=O)N2CCc3ccccc3C2)nc2ccc(Cl)cn12 | inconclusive: 7.94 µM [fluorescent, side channel, partial curve] | – |
| O=C(Nc1nccs1)c1ccc(S(=O)(=O)NCc2cccs2)cc1 | inconclusive: 22.4 µM [quencher, side channel, partial curve] | – |
| CSc1cccc(NC(=O)c2nnn(Cc3ccccc3)c2N)c1 | inconclusive: 3.55 µM [quencher, side channel, single point] | – |
| O=S(c1cc(Cl)cc(Cl)c1O)c1cc(Cl)cc(Cl)c1O | inconclusive: 31.6 µM [quencher, side channel, partial curve] | – |
| Cc1ccc2nc(CCCc3nc4ccc(C)cc4[nH]3)[nH]c2c1 | – | inactive: -18.8% |
| CC(=O)Nc1sc2c(c1C(c1ccccc1Cl)N1CCN(CCO)CC1)CCCC2 (centres undefined) | inconclusive: 15.8 µM [fluorescent, side channel, partial curve] | – |
| COc1cc(CNC23CC4CC(CC(C4)C2)C3)ccc1OCc1ccccc1 | inconclusive: 5.01 µM [fluorescent, side channel, full curve, poor fit] | – |
| O=C(CN1CCOCC1)N/N=C/c1cccc2ccccc12 | – | inactive: -6.3% |
| O=C(O)c1ccc(Cn2cnc3cccnc32)cc1 | inconclusive: 10 µM [inhibitor, partial curve, poor fit] | – |
| CN(C)CCOc1nc(-c2ccccc2)nc2c1oc1ccccc12 | – | inactive: -10.7% |
| Cc1cc(/C=C2/C(=O)NN(c3ccccc3)C2=O)c(C)n1-c1cccc(O)c1 | inconclusive: 25.1 µM [quencher, side channel, partial curve] | – |
| COc1ccc2[nH]c(C)c(CCNC(=S)Nc3ccc(C)cc3)c2c1 | inconclusive: 3.16 µM [quencher, side channel, full curve] | – |
| CCOC(=O)C1=C(O)C(=O)N(Cc2ccc(C(C)(C)C)cc2)CC1 | inconclusive: 4.47 µM [fluorescent, side channel, full curve] | – |
| Cc1c(Cl)cccc1NC(=S)N1CCN(c2ccccn2)CC1 | inconclusive: 17.8 µM [inhibitor, single point] | – |
| CC12CCC=CC1C(c1ccc(/C=C/c3ccccc3)cc1F)N(Cc1ccccc1)C2=O (centres undefined) | – | inactive: -11.4% |
| Cn1c(O)c(C2=c3ccccc3=NC2=O)sc1=Nc1ccc(Cl)cc1 | inconclusive: 31.6 µM [quencher, side channel, single point] | – |
| CCOc1ccc(NC(=S)Nc2cc(-c3ccccc3)[nH]n2)cc1 | inconclusive: 35.5 µM [inhibitor, single point] | – |

| Compound | Potency | FP activity change, negative = inhibition |
| --- | --- | --- |
| CCOc1cc(/C=N/NC(=O)C(=O)N/N=C/c2ccc(O)c(OCC)c2)ccc1O | inconclusive: 35.5 µM [fluorescent, single point] | – |
| Cc1ccc(N=Nc2c(C)[nH]n(-c3ccccc3)c2=O)cc1Br | inconclusive: 12.6 µM [quencher, side channel, partial curve] | – |
| COc1cc2c(OC)cccc2cc1C(=O)O | – | inactive: -2.73% |
| CC(=O)c1ccc(NC(=O)C2CCCO2)cc1 (centres undefined) | inconclusive: 15.8 µM [quencher, side channel, partial curve] | – |
| Cc1ccc(S(=O)(=O)N2CC=C(c3c(C)n(C)c4ccccc34)CC2)cc1 | inconclusive: 39.8 µM [fluorescent, single point] | – |
| COc1cc(/C=C2\C(=O)ON=C2c2ccccc2)cc(Cl)c1O | inconclusive: 35.5 µM [fluorescent, side channel, single point] | – |
| COc1ccc(OC)c(/C=C/C(=O)Nc2ccc3c(c2)CCC3)c1 | inconclusive: 17.8 µM [quencher, side channel, partial curve] | – |
| O=C1CC(N2C(=O)/C(=C/C=C/c3ccccc3)SC2=S)C(=O)N1c1ccccc1 (centres undefined) | inconclusive: 14.1 µM [quencher, partial curve] | – |
| C/C(=N\NC(N)=O)c1cccc(Cl)c1 | inconclusive: 28.2 µM [inhibitor, partial curve, poor fit] | – |
| CCOC(=O)Cc1c(C)nc2c(-c3ccc(Cl)cc3)c(C)[nH]n2c1=O | – | inactive: -20.2% |
| CCOc1ccc(NC(=O)CC2C(=O)N(c3ccccc3)C(=O)N2CCc2cccs2)cc1 (centres undefined) | inconclusive: 7.94 µM [quencher, side channel, full curve] | – |
| Nc1nonc1-n1nnc(C(=O)N/N=C/c2ccccc2Br)c1CN1CCCC1 | inconclusive: 22.4 µM [fluorescent, side channel, partial curve] | – |
| O=C(Nc1ccc(Cl)cc1)Nc1nnc(Cc2ccc([N+](=O)[O-])cc2)s1 | inconclusive: 3.55 µM [quencher, side channel, full curve] | – |
| CCc1ccc(NC(=O)CN(c2ccccc2)S(=O)(=O)N(C)C)cc1 | inconclusive: 35.5 µM [quencher, side channel, single point] | – |
| CN(c1ccccc1)S(=O)(=O)c1ccc(C(=O)Nc2nnc(C3CC3)o2)cc1 | inconclusive: 14.1 µM [quencher, side channel, partial curve] | – |
| Cc1ccc(N2CC(C(=O)Nc3nc4ccc(S(C)(=O)=O)cc4s3)CC2=O)cc1 (centres undefined) | inconclusive: 17.8 µM [quencher, side channel, partial curve] | – |
| O=C(Cc1cccs1)N1CCCC(c2nc3c(nnn3Cc3ccccc3Cl)c(=O)[nH]2)C1 (centres undefined) | inconclusive: 10 µM [fluorescent, side channel, partial curve] | – |
| COc1ccc(N(CC(=O)N/N=C(\C)c2ccc(C)cc2)S(=O)(=O)c2ccccc2)cc1 | inconclusive: 28.2 µM [fluorescent, side channel, partial curve] | – |
| Cc1c(C(=O)OCC(=O)Nc2cccc(S(N)(=O)=O)c2)oc2c1ccc1ccccc12 | inconclusive: 39.8 µM [inhibitor, single point] | – |
